The test system of the first experiment is SH-SKN cell lines. Put plainly: Mitochondrial respiration (Seahorse mitochondrial stress test, OCR). The note with it: 10 μM, 12 hours. It is filed as cell-based, human. Here is the method:
All drugs were used at 10 μM. The experiment was repeated 3 times to 5 times.
Take `Nc1nc(N2CCN(C(=O)[C@H]3CCCO3)CC2)cc2cc3c(cc12)OCCO3` [Compound T10]: the “Activity of enhancing mitochondrial respiration (in words)” value is on record as “no activity of activating mitochondrion”.

In the case of `Nc1nc(N2CCN(C(=O)c3ccco3)CC2)cc2cc3c(cc12)OCO3` [Compound T11], the “Activity of enhancing mitochondrial respiration (in words)” value is listed as “no activity of activating mitochondrion”.

The same experiment, now with this note: Homo sapiens, 12 hours, vs DMSO control, read-out: Increase in Maximal Mitochondrial Respiration.
On to `Nc1nc(N2CCN(C(=O)[C@H]3CCCO3)CC2)cc2cc3c(cc12)OCCO3` [Compound T10], for which the activation at 10 µM turned out to be 6.3 ± 0.4%. On the same count and under the same terms, for `Nc1nc(N2CCN(C(=O)[C@H]3CCCO3)CC2)cc2cc3c(cc12)OCO3` [Compound T1] the value was 22.1 ± 3.1%; for `CC1(C)Oc2cc3cc(N4CCN(C(=O)[C@H]5CCCO5)CC4)nc(N)c3cc2O1` [Compound T4], 18.1 ± 0.7%; for `Nc1nc(N2CCN(C(=O)[C@H]3CCCO3)CC2)cc2cc3c(cc12)CCO3` [Compound T5], 16.6 ± 0.8%. The same measure, in the same setting: next, `Nc1nc(N2CCN(C(=O)[C@H]3CCCN3)CC2)cc2cc3c(cc12)OCO3` [Compound T8]: 19.2 ± 3.8%; `CC1Oc2cc3cc(N4CCN(C(=O)[C@H]5CCCO5)CC4)nc(N)c3cc2O1` (stereo partly shown) [Compound T3]: 15.3 ± 0.9%; `Nc1nc(N2CCN(C(=O)C3CCCC3)CC2)cc2cc3c(cc12)OCO3` [Compound T7]: 21.5 ± 4.1%. Regarding `Nc1nc(N2CCN(C(=O)[C@@H]3CCCO3)CC2)cc2cc3c(cc12)OCO3` [Compound T2], the activation at 10 µM is 17.8 ± 2.2%. With `Nc1nc(N2CCN(C(=O)[C@@H]3CCCN3)CC2)cc2cc3c(cc12)OCO3` [Compound T9], the activation at 10 µM stood at 20.1 ± 0.8%. Consider `Nc1nc(N2CCN(C(=O)[C@H]3CCCO3)CC2)cc2cc3c(cc12)OCC3` [Compound T6], for which the activation at 10 µM amounted to 26.3 ± 3.6%. Same read-out and setting: for `Nc1nc(N2CCN(C(=O)c3ccco3)CC2)cc2cc3c(cc12)OCO3` [Compound T11] the value was 8.6 ± 0.6%.
